Assay results from PubChem BioAssay AID493005 (National Center for Advancing Translational Sciences (NCATS), 2010).
The whole screen tested about 340,000 compounds, of which fewer than 10 were called active. This list was built around the results that the source calls inconclusive (neither active nor inactive); the mix of calls is not that of the screen. The call rests on the fitted dose curve; in most records, active means well fitted inhibition curve with a large enough effect in the main read-out, with a control signal flat (not every such curve was filed as active); inconclusive means small, poorly fitted or top-dose-only effect, or effect the other way, or a change in a side signal; inactive means no such curve, though single readings can be large or run the other way. Potencies of inconclusive entries are doubtful fits and often do not repeat. A note “side channel” means that the fit belongs to a control or component signal, not to the main read-out.

Each compound was assayed against Tumor susceptibility gene 101 protein (Homo sapiens) (UniProt Q99816) (assay: qHTS Assay for Iinhibitors of HIV-1 Budding by Blocking the Interaction of PTAP/TSG101). Settings: Fluorescence polarization, FITC-PTAP peptide / Tsg101 binding; activity change, negative = inhibition: at 115 µM (top of the series).
Summary of the method: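 Compounds were pin-transferred onto Tsg101 binding domain (10 uM final) in HEPES pH 7.5 buffer, then FITC-PTAP peptide was added at 50 nM final. After 20 min at RT, polarization reported peptide displacement across a qHTS concentration series.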
Potency means the concentration at half of the fitted maximal effect; tags describe the fitted curve by direction and shape or compound fluorescence and quenching.
Wherever activity change, negative = inhibition is given: % of control where 0% means no effect.

UniProt Q99816, sequence (Q99816 whole entry, looked up, the tested form may be a part): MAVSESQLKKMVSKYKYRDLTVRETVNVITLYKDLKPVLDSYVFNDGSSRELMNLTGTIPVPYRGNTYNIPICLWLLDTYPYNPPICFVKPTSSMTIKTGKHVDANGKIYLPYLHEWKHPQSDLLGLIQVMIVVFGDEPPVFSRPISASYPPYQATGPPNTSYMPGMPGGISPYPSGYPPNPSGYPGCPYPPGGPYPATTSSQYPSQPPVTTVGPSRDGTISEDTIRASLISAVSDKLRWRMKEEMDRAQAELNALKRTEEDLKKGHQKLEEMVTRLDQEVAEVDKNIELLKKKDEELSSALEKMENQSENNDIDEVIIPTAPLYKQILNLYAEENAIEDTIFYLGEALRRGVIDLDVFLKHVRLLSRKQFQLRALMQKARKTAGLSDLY

| Structure (SMILES) | Potency | activity change, negative = inhibition |
| --- | --- | --- |
| O=[N+]([O-])c1ccc(N=Nc2ccc(O)cc2O)cc1 | inactive | – |
| C[n+]1cc(C(=O)N2CCCCC2)ccc1/C=C/c1c[nH]c2ccccc12 | inconclusive: 56.2 µM [fluorescent, side channel, partial curve, poor fit] | – |
| CC(C)(C)N=Cc1c(O)ccc2oc3c(c12)CCCC3 | inconclusive: 50.1 µM [fluorescent, side channel, partial curve, poor fit] | – |
| C=CCN1C(=O)c2cccc3c(N4CCCCC4)ccc(c23)C1=O | inconclusive: 50.1 µM [fluorescent, side channel, partial curve, poor fit] | – |
| CC(=O)Nc1ccc(S(=O)(=O)NCCSCc2c(Cl)cccc2Cl)cc1 | inactive | – |
| Cc1ccc2c(c1)c(/C=C/c1cc[n+](C)cc1)c(C)n2C | inconclusive: 25.1 µM [fluorescent, side channel, partial curve, poor fit] | – |
| CC(=O)Nc1ccc(S(=O)(=O)Nc2nc3ccccc3nc2-n2ccc(=NC(=O)c3ccc(F)cc3)cc2)cc1 | inconclusive: 79.4 µM [fluorescent, side channel, single point] | – |
| O=C1CCCCc2sc(Br)c([N+](=O)[O-])c2N1 | inactive | – |
| Clc1cccc(CSc2nnc(-c3c[nH]c4ccccc34)o2)c1 | inactive | – |
| CCCc1ccc(O)c(N=Cc2cc(Br)cc(OCC)c2O)c1 | inconclusive: 50.1 µM [fluorescent, side channel, partial curve, poor fit] | – |
| CCOc1ccc2c(c1)/C(=C(\C(Cl)=C(Cl)Cl)[N+](=O)[O-])N2 | inconclusive: 50.1 µM [fluorescent, partial curve, poor fit] | – |
| CC(=O)OCCn1c2nc(=O)[nH]c(=O)c-2nc2cc(C)c(C)cc21 | inconclusive: 20 µM [fluorescent, side channel, full curve] | – |
| Cc1cccc(C(=O)OCC(=O)NCc2cccs2)c1 | inactive | – |
| CCn1cc(C(=O)N2CCN(c3ccccn3)CC2)c(=O)c2cc(S(=O)(=O)N(C)C3CCCCC3)ccc21 | inconclusive: 89.1 µM [fluorescent, side channel, partial curve, poor fit] | – |
| CCC(=O)Nc1ccc(NC(=O)C23CC4CC(CC(C4)C2)C3)cn1 | inconclusive: 89.1 µM [fluorescent, side channel, single point] | – |
| CC1(COS(N)(=O)=O)CCCCC1 | inactive | – |
| CCN1CCN(Cc2c(O)ccc3c2O/C(=C\C=C\c2ccccc2OC)C3=O)CC1 | inconclusive: 56.2 µM [fluorescent, side channel, partial curve, poor fit] | – |
| CN(N=Cc1cccc2cccnc12)c1ccc([N+](=O)[O-])cc1[N+](=O)[O-] | inconclusive: 79.4 µM [fluorescent, side channel, partial curve, poor fit] | – |
| CC(C)COc1ccc(C(=O)N/C(=C/c2cccc([N+](=O)[O-])c2)C(=O)O)cc1 | inconclusive: 79.4 µM [fluorescent, side channel, partial curve] | – |
| CN1c2ccc(C=O)c3c(C=O)ccc(c23)N(C)C1(C)C | inconclusive: 56.2 µM [falling, partial curve, poor fit] | – |

| Structure (SMILES) | Potency | activity change, negative = inhibition |
| --- | --- | --- |
| COc1ccc(-c2ccc3c(c2)S(=O)(=O)c2cccc(C(=O)NCc4cccc(OC(F)(F)F)c4)c2C3=O)cc1OC | inconclusive: 56.2 µM [fluorescent, side channel, partial curve, poor fit] | – |
| Cc1ccc(COc2ccccc2-c2cc(C(=O)N/N=C/c3cccnc3)[nH]n2)cc1 | inactive | – |
| CCC1CCCCN1C(=O)c1cc2cc(Br)ccc2oc1=O (centres undefined) | inconclusive: 89.1 µM [falling, single point] | – |
| CN(C)c1ccc(/C=C/C(=O)c2c(O)c3ccccc3oc2=O)cc1 | inconclusive: 4.47 µM [fluorescent, side channel, full curve, poor fit] | – |
| O=S(=O)([N-]c1nc2ccccc2nc1-[n+]1ccc(-c2ccncc2)cc1)c1ccccc1 | inconclusive: 56.2 µM [fluorescent, partial curve, poor fit] | – |
| COC(=O)C1CSc2[nH]c(=O)sc2C1c1ccccc1 (centres undefined) | inconclusive: 63.1 µM [fluorescent, side channel, partial curve, poor fit] | – |
| O=C(O)C1C2CCC(O2)C1C(=O)Nc1cnn(Cc2ccccc2)c1 (centres undefined) | inactive | – |
| CCN1CCc2c(sc(NC(=O)c3ccc(S(=O)(=O)N(C)c4ccccc4)cc3)c2C(=O)NC)C1 | inconclusive: 50.1 µM [fluorescent, side channel, partial curve, poor fit] | – |
| O=C(NCc1ccccc1Br)c1cccc2c1C(=O)c1ccc(N3CCC(Cc4ccccc4)CC3)cc1S2(=O)=O | inconclusive: 56.2 µM [fluorescent, side channel, partial curve, poor fit] | – |
| O=C(Nc1cc(S(=O)(=O)N2CCOCC2)ccc1Cl)c1cc([N+](=O)[O-])ccc1Cl | inactive | – |
| COc1cc(OC)c(N(C)C(=O)CCNC(=O)Cn2cnc3ccccc3c2=O)cc1Cl | inactive | – |
| N#C/C(C(N)=O)=c1/ccc2c(c1)N1C3=C(CCCC3)CC3CCCCC31N=2 (centres undefined) | inconclusive: 44.7 µM [quencher, side channel, partial curve, poor fit] | – |
| N=c1c(S(=O)(=O)c2ccc(Cl)cc2)cc2c(=O)n3ccccc3nc2n1Cc1cccnc1 | inconclusive: 44.7 µM [fluorescent, partial curve, poor fit] | – |
| CCOc1ccc2[nH]c(C)c(CN3CCN(CC)CC3)c(=O)c2c1 | inactive | – |
| CN1/C(=C\C=C(/C#N)C(=O)Nc2ccc(Cl)cc2)C(C)(C)c2ccccc21 | inconclusive: 56.2 µM [fluorescent, side channel, partial curve, poor fit] | – |
| CCCOc1cccc(C2C(C(=O)c3cccs3)=C(O)C(=O)N2Cc2cccnc2)c1 (centres undefined) | inconclusive: 2.51 µM [fluorescent, side channel, full curve, poor fit] | – |
| O=C(NCCc1ccc(F)cc1)c1cccc2c1C(=O)c1ccc(N3CCC(Cc4ccccc4)CC3)cc1S2(=O)=O | inconclusive: 39.8 µM [fluorescent, side channel, partial curve] | – |
| CC1(C)OC(=O)C(=CNNc2c(Cl)cc(Cl)cc2Cl)C(=O)O1 | inactive | – |
| O=C(NCC1CCCO1)c1nn2c(C(F)(F)F)cc(-c3ccco3)nc2c1Cl (centres undefined) | inconclusive: 79.4 µM [fluorescent, side channel, single point] | – |
| CCN(CC)C(=O)Cn1c(=O)c2ccccc2n2c(=S)sc(-c3cccc(C)c3)c12 | inconclusive: 56.2 µM [fluorescent, side channel, partial curve, poor fit] | – |

| Structure (SMILES) | Potency | activity change, negative = inhibition |
| --- | --- | --- |
| CCCOc1ccc2cc(C(=O)NCc3ccccc3)c(=O)oc2c1 | inconclusive: 56.2 µM [fluorescent, side channel, partial curve] | – |
| CC(C)(CO)NCc1cccs1 | – | inconclusive: 14.3% [phenotype inactive] |
| Cc1c(NC(=O)c2ccc(F)c(S(=O)(=O)N3CCOCC3)c2)c(=O)n(-c2ccccc2)n1C | inactive | – |
| COc1cc(OC)c(-c2cc(C(=O)O)ccc2OC)c(OC)c1 | inconclusive: 100 µM [fluorescent, side channel, single point] | – |
| O=C(c1cc(-c2ccc(F)cc2)on1)N1CCCC1 | inactive | – |
| N=C1/C(=C\c2ccc(SCc3ccco3)o2)C(=O)N=C2SC=NN12 | inconclusive: 79.4 µM [fluorescent, side channel, partial curve, poor fit] | – |
| Nc1ccc(Oc2ccccc2-c2ccccc2)cc1 | inactive | – |
| COc1ccc(Nc2cc(C)c3c(O)cccc3n2)cc1 | inactive | – |
| CCc1cccc(CC)c1NC(=O)CSc1nnc(C2CC2)n1C | inconclusive: 44.7 µM [falling, partial curve, poor fit] | – |
| O=C(/C=C/c1ccc(N2CCC(c3ccccc3)=N2)cc1)c1ccccc1 | inconclusive: 31.6 µM [fluorescent, side channel, partial curve, poor fit] | – |
| CCN1CCN(CC(O)COCCOc2ccc(Br)cc2)CC1 (centres undefined) | inactive | – |
| Brc1ccc(C2=CC(c3cccs3)n3ncnc3N2)cc1 (centres undefined) | inconclusive: 44.7 µM [fluorescent, side channel, partial curve, poor fit] | – |
| COc1ccccc1N1C(=O)C2C(C(=O)c3ccccc3)=NN(c3ccccc3OC)C2C1=O (centres undefined) | inconclusive: 89.1 µM [fluorescent, side channel, partial curve] | – |
| FC(F)(F)c1cc(CCN2C(=S)NC[C@@H]2CC2CCCCC2)cc(C(F)(F)F)c1 | inconclusive: 44.7 µM [quencher, side channel, partial curve, poor fit] | – |
| COc1ccc(-c2c[n+](CC(=O)OC3CC(C)CCC3C(C)C)c3n2CCC3)cc1 (centres undefined) | inactive | – |
| CCN1CCc2c(sc(N)c2C(N)=O)C1 | inconclusive: 50.1 µM [fluorescent, side channel, partial curve, poor fit] | – |
| CCOc1ccc(C(=O)N2CCN(c3ccccc3)CC2)cc1OCC | inactive | – |
| CC(C)CCC1(CCNC(=O)c2cccs2)CCOC(C)(C)C1 (centres undefined) | inactive | – |
| Cc1ccc(NC(=O)CSc2ccccc2NC(=O)c2cccc(Cl)c2)cc1Cl | inconclusive: 15.8 µM [fluorescent, side channel, full curve, poor fit] | – |
